# The other results are listed elsewhere or left out.
# Key:
# Assay in all cases: glycan array binding signal (z-score within array); higher = stronger binding
# Conditions in all cases: glycan notation: IUPAC condensed, linker removed
# [1] = target: GlcNAc(b1-4)GlcNAc(b1-4)GlcNAc(b1-4)GlcNAc(b1-4)GlcNAc(b1-4)GlcNAc
# Outline: (§1)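 Arrays were curated from the Consortium for Functional Glycomics database, 3228 in total, and kept only where the protein sequence was available. Binding is expressed as a within-array Z-score. This score was averaged across arrays of the same protein sequence at different concentrations or buffers and across linkers, and negative values can be read as non-binding.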
# [2] = target: GlcNAc(b1-4)[GlcNAc(b1-6)]GalNAc
# Outline: as §1
# [3] = target: GlcNAc(b1-6)Gal(b1-4)GlcNAc
# Outline: as §1
# [4] = target: GlcNAc(b1-6)GalNAc
# Outline: as §1
# [5] = target: GlcNAc6S(b1-3)Gal(b1-4)GlcNAc
# Outline: as §1
# [6] = target: Kdn(a2-3)Gal(b1-3)GalNAc
# Outline: as §1
# [7] = target: Kdn(a2-3)Gal(b1-3)GlcNAc
# Outline: as §1
# [8] = target: Kdn(a2-3)Gal(b1-4)Glc
# Outline: as §1
# [9] = target: Kdn(a2-3)Gal(b1-4)GlcNAc
# Outline: as §1
# [10] = target: Kdn(a2-3)Gal(b1-4)[Fuc(a1-3)]GlcNAc
# Outline: as §1
# [11] = target: Kdn(a2-6)Gal(b1-4)GlcNAc
# Outline: as §1
# [12] = target: Man(a1-2)Man(a1-2)Man(a1-3)Man
# Outline: as §1
# [13] = target: Man(a1-2)Man(a1-2)Man(a1-6)[Man(a1-3)]Man
# Outline: as §1
# [14] = target: Man(a1-2)Man(a1-3)Man
# Outline: as §1
# [15] = target: Man(a1-2)Man(a1-3)[Man(a1-2)Man(a1-6)]Man
# Outline: as §1
# [16] = target: Man(a1-2)Man(a1-3)[Man(a1-2)Man(a1-6)]Man(a1-6)[Man(a1-2)Man(a1-2)Man(a1-3)]Man
# Outline: as §1
# [17] = target: Man(a1-2)Man(a1-3)[Man(a1-2)Man(a1-6)]Man(a1-6)[Man(a1-2)Man(a1-2)Man(a1-3)]Man(b1-4)GlcNAc(b1-4)GlcNAc
# Outline: as §1
# [18] = target: Man(a1-2)Man(a1-3)[Man(a1-6)]Man(a1-6)[Man(a1-2)Man(a1-3)]Man(b1-4)GlcNAc(b1-4)GlcNAc
# Outline: as §1
# [19] = target: Man(a1-2)Man(a1-6)[Man(a1-3)]Man(a1-6)[Man(a1-2)Man(a1-2)Man(a1-3)]Man
# Outline: as §1
# [20] = target: Man(a1-2)Man(a1-6)[Man(a1-3)]Man(a1-6)[Man(a1-2)Man(a1-2)Man(a1-3)]Man(b1-4)GlcNAc(b1-4)GlcNAc
# Outline: as §1
# [21] = target: Man(a1-3)[Man(a1-6)]Man
# Outline: as §1
# [22] = target: Man(a1-3)[Man(a1-6)]Man(a1-6)[Man(a1-2)Man(a1-3)]Man(b1-4)GlcNAc(b1-4)GlcNAc
# Outline: as §1
# [23] = target: Man(a1-3)[Man(a1-6)]Man(a1-6)[Man(a1-3)]Man
# Outline: as §1
# [24] = target: Man(a1-3)[Man(a1-6)]Man(a1-6)[Man(a1-3)]Man(b1-4)GlcNAc(b1-4)GlcNAc
# Outline: as §1
# [25] = target: Man(a1-3)[Man(a1-6)]Man(b1-4)GlcNAc(b1-4)GlcNAc
# Outline: as §1
# [26] = target: Man(a1-3)[Man(a1-6)]Man(b1-4)GlcNAc(b1-4)[Fuc(a1-6)]GlcNAc
# Outline: as §1
# [27] = target: Man(a1-6)Man
# Outline: as §1
# [28] = target: Man(b1-4)GlcNAc
# Outline: as §1
# [29] = target: MurNAc(b1-4)GlcNAc
# Outline: as §1
# [30] = target: Neu5Ac(a2-3)Gal
# Outline: as §1
# [31] = target: Neu5Ac(a2-3)Gal(b1-3)GalNAc
# Outline: as §1
# [32] = target: Neu5Ac(a2-3)Gal(b1-3)GalNAc(b1-3)Gal(a1-4)Gal(b1-4)Glc
# Outline: as §1
# [33] = target: Neu5Ac(a2-3)Gal(b1-3)GalNAc(b1-4)[Neu5Ac(a2-3)]Gal(b1-4)Glc
# Outline: as §1
# [34] = target: Neu5Ac(a2-3)Gal(b1-3)GalNAc(b1-4)[Neu5Ac(a2-8)Neu5Ac(a2-3)]Gal(b1-4)Glc
# Outline: as §1
# [35] = target: Neu5Ac(a2-3)Gal(b1-3)GalNAc6S
# Outline: as §1
# [36] = target: Neu5Ac(a2-3)Gal(b1-3)GlcNAc
# Outline: as §1
# [37] = target: Neu5Ac(a2-3)Gal(b1-3)GlcNAc(b1-2)Man
# Outline: as §1
# [38] = target: Neu5Ac(a2-3)Gal(b1-3)GlcNAc(b1-2)Man(a1-3)[GlcNAc(b1-4)][Neu5Ac(a2-3)Gal(b1-3)GlcNAc(b1-2)Man(a1-6)]Man(b1-4)GlcNAc(b1-4)GlcNAc
# Outline: as §1
# [39] = target: Neu5Ac(a2-3)Gal(b1-3)GlcNAc(b1-2)Man(a1-3)[Neu5Ac(a2-3)Gal(b1-3)GlcNAc(b1-2)Man(a1-6)]Man(b1-4)GlcNAc(b1-4)GlcNAc
# Outline: as §1
# [40] = target: Neu5Ac(a2-3)Gal(b1-3)GlcNAc(b1-2)[Neu5Ac(a2-3)Gal(b1-3)GlcNAc(b1-4)]Man(a1-6)[Neu5Ac(a2-3)Gal(b1-3)GlcNAc(b1-2)Man(a1-3)]Man(b1-4)GlcNAc(b1-4)GlcNAc
# Outline: as §1
# [41] = target: Neu5Ac(a2-3)Gal(b1-3)GlcNAc(b1-3)Gal(b1-3)GlcNAc
# Outline: as §1
# [42] = target: Neu5Ac(a2-3)Gal(b1-3)GlcNAc(b1-3)Gal(b1-4)GlcNAc
# Outline: as §1
# [43] = target: Neu5Ac(a2-3)Gal(b1-3)GlcNAc(b1-3)GalNAc
# Outline: as §1
# [44] = target: Neu5Ac(a2-3)Gal(b1-3)GlcNAc(b1-4)Gal(b1-4)Glc
# Outline: as §1
# [45] = target: Neu5Ac(a2-3)Gal(b1-3)GlcNAc(b1-6)GalNAc
# Outline: as §1
binder,measurement,setting,value
rCnSL-A (Clitocybe nebularis) (protein) VNPNLPGPNDVFVGFRGTNNIVGAIYEKDGIKDTPLNNGADAEMGPGSYITDGLFTARIFASGSAGNNPGTTATVCKIYASGVQWRGAPKGYIPVAYFGNGPTAEQRRQTYLRTLGLPGTAIRFGNLNTNPGQGPTAPRQMVVPPGPLRSLLKASCFPAADTRLPQTLHYFEKRVDWNIITAADSQTWGH,glycan array binding signal (z-score),[1],-0.232
same,glycan array binding signal (z-score),[2],-0.237
same,glycan array binding signal (z-score),[3],-0.21
same,glycan array binding signal (z-score),[4],-0.235
same,glycan array binding signal (z-score),[5],-0.018
same,glycan array binding signal (z-score),[6],-0.16
same,glycan array binding signal (z-score),[7],-0.287
same,glycan array binding signal (z-score),[8],-0.222
same,glycan array binding signal (z-score),[9],-0.225
same,glycan array binding signal (z-score),[10],-0.25
same,glycan array binding signal (z-score),[11],-0.218
same,glycan array binding signal (z-score),[12],-0.24
same,glycan array binding signal (z-score),[13],-0.17
same,glycan array binding signal (z-score),[14],-0.212
same,glycan array binding signal (z-score),[15],-0.269
same,glycan array binding signal (z-score),[16],-0.064
same,glycan array binding signal (z-score),[17],0.008
same,glycan array binding signal (z-score),[18],-0.116
same,glycan array binding signal (z-score),[19],-0.251
same,glycan array binding signal (z-score),[20],-0.138
same,glycan array binding signal (z-score),[21],-0.228
same,glycan array binding signal (z-score),[22],0.44
same,glycan array binding signal (z-score),[23],-0.221
same,glycan array binding signal (z-score),[24],-0.237
same,glycan array binding signal (z-score),[25],-0.208
same,glycan array binding signal (z-score),[26],-0.101
same,glycan array binding signal (z-score),[27],-0.289
same,glycan array binding signal (z-score),[28],-0.086
same,glycan array binding signal (z-score),[29],-0.236
same,glycan array binding signal (z-score),[30],-0.301
same,glycan array binding signal (z-score),[31],-0.221
same,glycan array binding signal (z-score),[32],-0.183
same,glycan array binding signal (z-score),[33],-0.217
same,glycan array binding signal (z-score),[34],-0.112
same,glycan array binding signal (z-score),[35],-0.234
same,glycan array binding signal (z-score),[36],-0.217
same,glycan array binding signal (z-score),[37],-0.19
same,glycan array binding signal (z-score),[38],-0.16
same,glycan array binding signal (z-score),[39],0.866
same,glycan array binding signal (z-score),[40],-0.136
same,glycan array binding signal (z-score),[41],-0.25
same,glycan array binding signal (z-score),[42],-0.231
same,glycan array binding signal (z-score),[43],-0.161
same,glycan array binding signal (z-score),[44],-0.2
same,glycan array binding signal (z-score),[45],-0.235

# Source: the supplement of paper PMC8728848
